Measured values: PubChem BioAssay AID504832 (National Center for Advancing Translational Sciences (NCATS), 2011)
In all, about 310,000 compounds went through this assay and about 18,000 (5.8%) were called active. Inconclusive means that the source gave no clear call. Such entries were picked first, then a sample of the others. Calls come from the whole dose curve; as a rule, active = well fitted inhibition curve with a large enough effect; inconclusive = small, poorly fitted or top-dose-only effect, or another doubt; inactive = no such curve, though single readings can be large or run the other way. No potency is given beside an inconclusive call; the fits are too rough.

test: Primary qHTS for delayed death inhibitors of the malarial parasite plastid, 48 hour incubation; conditions: P. falciparum luciferase growth in erythrocytes; series mostly up to 28.7 µM
In short: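 Erythrocytes infected with P. falciparum carrying an integrated firefly luciferase reporter (2% hematocrit, 0.1% parasitemia final) were exposed to compounds in RPMI 1640 with 0.5% Albumax at 37 C, 5% CO2. Growth inhibition was scored as reduced luminescence.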
% is set by controls: 0 for no effect and ±100 for the full control effect; potency is the fitted concentration of half-maximal effect; tags give direction and shape of the fitted curve.

Row | Compound | Potency | activity change, negative = inhibition
1 | Clc1ccccc1Cc1noc(CN2CCN3CCCC3C2)n1 (centres undefined) | inconclusive [inhibitor, partial curve, poor fit] | –
2 | COc1ccc(C(=O)NC(C)c2nccs2)cc1OC1CCN(C(C)C)CC1 (centres undefined) | inconclusive [inhibitor, partial curve, poor fit] | –
3 | CCN(CC)c1ccc(C2C(C(=O)OCCOC)=C(C)NC3=C2C(=O)CCC3)cc1 (centres undefined) | inconclusive [inhibitor, partial curve, poor fit] | –
4 | CCC1C(=NO)C(CC)C(c2ccccc2)NC1c1ccccc1 (centres undefined) | active: 11.7 µM | –
5 | CCN(CC)C(=O)CSC1=Nc2ccccc2C2=NC(Cc3c[nH]c4ccccc34)C(=O)N12 (centres undefined) | inconclusive [inhibitor, partial curve] | –
6 | NC(=O)C1CCN(C(=O)Cc2ccsc2)CC1 | inconclusive [inhibitor, single point] | –
7 | CSC(=Nc1ccccc1)C1=C(O)COC1=O | inactive | –
8 | C=CCOc1c(Cl)cc(CNc2ccc(N(C)C)cc2)cc1OC | inconclusive [inhibitor, full curve, poor fit] | –
9 | CCC1(CC)NC(=O)N(CC(=O)OCc2nc3cc(C(=O)OC)ccc3c(=O)[nH]2)C1=O | inconclusive [inhibitor, single point] | –
10 | Oc1c(Br)cc(Br)cc1/C=N/c1nccs1 | inconclusive [inhibitor, single point] | –
11 | CCN(CC(=O)Nc1ccc(NC(C)=O)cc1)C(=O)/C=C/c1ccccc1 | inactive | –
12 | O=C(c1csc(Nc2ccccc2Cl)n1)N1CCCC1 | inactive | –
13 | COc1ccc(-n2c(C)c(C(C)=O)c3cc(O)ccc32)cc1 | inactive | –
14 | CN(CC(=O)Nc1ccc(F)cc1)C(=O)C1CCN(C(=O)Nc2ccccc2)CC1 | inconclusive [inhibitor, single point] | –
15 | O=C(CCc1ccc(S(=O)(=O)N2CCOCC2)cc1)Nc1nc(COc2ccccc2)cs1 | active: 11.7 µM | –
16 | Cc1sc2ncnc(N3CCC(C(=O)NCC(=O)Nc4ccc(F)c(F)c4)CC3)c2c1C | inconclusive [inhibitor, single point] | –
17 | O=C(COc1ccc(F)cc1Br)N1CCc2ccccc21 | inactive | –
18 | CCN1CCN(c2ccc(S(=O)(=O)N3CCCCC3)cc2NC(=O)c2ccccc2)CC1 | inconclusive [inhibitor, single point] | –
19 | O=C(CCNC(=O)c1ccc(Cl)cc1)Nc1ccncc1 | inactive | –
20 | COC(=O)c1c(N2C(=O)Nc3ccccc3N2O)sc(C)c1C | inactive | –
21 | COc1ccc(NC(=O)Cn2c(=O)n(CC3CCCO3)c(=O)c3ccccc32)c(OC)c1 (centres undefined) | inconclusive [inhibitor, single point] | –
22 | COc1ccc(CN(C(=O)c2cc(=O)c3cc(C)cc(C)c3o2)C2CCS(=O)(=O)C2)cc1 (centres undefined) | inconclusive [inhibitor, partial curve, poor fit] | –
23 | CCN(Cc1ccccc1)C(=O)C(C)OC(=O)c1cc(S(=O)(=O)Nc2c(C)n(C)n(-c3ccccc3)c2=O)ccc1C (centres undefined) | inconclusive [inhibitor, partial curve, poor fit] | –

Row | Compound | Potency | activity change, negative = inhibition
24 | COc1ccc(CN2CCNC(=O)C2CC(=O)NCCCn2cccn2)c(OC)c1 (centres undefined) | inactive | –
25 | CN(C)CCN(CC1CCCN(Cc2ccccc2F)C1)C(=O)Cc1ccccc1F (centres undefined) | inconclusive [inhibitor, single point] | –
26 | O=C(NCC(Cl)c1ccc2ccccc2c1)c1c(F)cccc1F (centres undefined) | – | inactive: -8.67% [at 0.00184 µM]
27 | CCOCCCNC(=S)N(CCN(CC)CC)Cc1cc2cc3c(cc2[nH]c1=O)OCCO3 | inconclusive [inhibitor, partial curve, poor fit] | –
28 | CC(O)CNc1nc2c(c(=O)n(Cc3ccc(Br)cc3)c(=O)n2C)n1C (centres undefined) | inconclusive [inhibitor, partial curve] | –
29 | Cc1ccccc1NC1(C#N)CCCCC1 | inconclusive [inhibitor, full curve, poor fit] | –
30 | O=C(CN1CCN(C(=O)C2CCCO2)CC1)Nc1c(Cl)cccc1Cl (centres undefined) | inactive | –
31 | Cc1cc2cc(C#N)c(N3CCOCC3)nc2cc1Cl | inactive | –
32 | CCn1nnc(NC(=O)c2sc3ccccc3c2Cl)n1 | inactive | –
33 | COc1ccc(CCNC(=O)COc2ccc(S(=O)(=O)NCC(C)C)cc2Cl)cc1OC | inconclusive [inhibitor, single point] | –
34 | Cc1cn([C@@H](CCCCN)C(=O)NCCCCCCCCCCC(=O)N2CCNCC2)nn1 | inactive | –
35 | CN1CCN(C(=O)CSc2nc(-c3cccs3)cc(-c3cccs3)c2C#N)CC1 | inconclusive [inhibitor, single point] | –
36 | N#Cc1ccccc1OCC(=O)N1CCN(CC(=O)Nc2ccc(F)cc2)CC1 | inconclusive [inhibitor, partial curve, poor fit] | –
37 | Cc1cc(/C=C2/C(=O)N(C)C(=S)N2C)ccc1N1CCCC1 | inactive | –
38 | Cc1c(C(=O)N2CCCCC2)nn(-c2ccc(Cl)cc2)c(=O)c1C#N | inactive | –
39 | CN(Cc1ccno1)C(=O)CC1C(=O)NCCN1CC(c1ccccc1)c1ccccc1 (centres undefined) | inconclusive [inhibitor, full curve, poor fit] | –
40 | CC(=O)c1c(C)[nH]c(C(=O)COC(=O)CCOc2ccc(C)cc2)c1C | inactive | –
41 | COc1ccc(-n2c(SCCNCCO)nc3sc4c(c3c2=O)CCCC4)cc1 | active: 13.1 µM | –
42 | CN1CCN(S(=O)(=O)c2ccc(Oc3cccc(C(F)(F)F)c3)nc2)CC1 | inconclusive [inhibitor, single point] | –
43 | O=C(O)CC1C(=O)OCN1C(=O)OCc1ccccc1 (centres undefined) | inconclusive [inhibitor, single point] | –
44 | CCCS(=O)(=O)C(=C(Nc1ccccc1)Nc1ccccc1)S(=O)(=O)CCC | inconclusive [inhibitor, partial curve] | –
45 | CCCNC(=O)C1CCN(S(=O)(=O)c2ccc3c(c2)OCCO3)CC1 | inconclusive [inhibitor, partial curve, poor fit] | –
46 | O=C(N/N=C/c1ccco1)c1cc(-c2ccncc2)nc2ccccc12 | inactive | –

Row | Compound | Potency | activity change, negative = inhibition
47 | COc1cc(CCC(=O)Nc2ccc(C)c(S(=O)(=O)N3CCCCCC3)c2)cc(OC)c1OC | active: 11.7 µM | –
48 | CCCCCCCCC[n+]1cccc2c3ccccc3ccc21 | active: 0.165 µM | –
49 | CCC1(c2ccccc2)NC(=O)N(CC(=O)c2ccc3c(c2)OCO3)C1=O (centres undefined) | inconclusive [inhibitor, partial curve] | –
50 | CN(Cc1nc(-c2cnccn2)no1)CC1(c2ccccc2)CC1(C)C (centres undefined) | inconclusive [inhibitor, single point] | –
51 | COC(=O)c1ccccc1NC(=O)CN1CCN(C(=O)c2ccco2)CC1 | inconclusive [inhibitor, full curve] | –
52 | Cc1ccc(-c2nnc(NCc3ccccc3)c3ccccc23)cc1 | inconclusive [inhibitor, full curve, poor fit] | –
53 | Cc1nc(NN)c2c3c(sc2n1)COC(C)(C)C3 | inconclusive [inhibitor, single point] | –
54 | CC(C)NC(=O)c1cccc(C(F)(F)F)c1 | inconclusive [inhibitor, partial curve, poor fit] | –
55 | CSc1ccccc1C(=O)C1CCCN(Cc2cnn(-c3ccccc3)c2)C1 (centres undefined) | inconclusive [inhibitor, partial curve, poor fit] | –
56 | O=C(CSc1nnc(-c2ccccc2)o1)NCC1CCCCC1 | inconclusive [inhibitor, full curve, poor fit] | –
57 | Cc1cc2sc3ccccc3c(=O)c2c(C)c1O | inconclusive [inhibitor, single point] | –
58 | COc1cccc(C(=O)C2CCCN(Cc3cccc(-n4nc(C)cc4C)c3)C2)c1 (centres undefined) | inconclusive [inhibitor, single point] | –
59 | O=C(c1cc(-c2ccc(Cl)cc2)nc2ccccc12)N1CCOCC1 | inconclusive [inhibitor, single point] | –
60 | Cn1c(=O)n(C)c2cc([N+](=O)[O-])c(N3CCN(S(=O)(=O)c4ccccc4)CC3)cc21 | inconclusive [inhibitor, single point] | –
61 | Cc1cc(C)nc(N/N=C/c2ccccc2OCc2ccc(Br)cc2)n1 | inconclusive [inhibitor, single point] | –
62 | CCCOc1ccc(C(C)=O)cc1CN1CCOCC1 | inactive | –
63 | Cc1cccc(C)c1NC(=O)CN(C)C(=O)c1cccc(S(=O)(=O)N2CCN(C)CC2)c1 | inconclusive [inhibitor, single point] | –
64 | FCCCOc1ccc(-c2nccc(-c3ccc(Cl)cc3)n2)cc1 | inactive | –
65 | CCC(C)n1c(=O)c(C(=O)Nc2ccccc2S(N)(=O)=O)c(O)c2ccccc21 (centres undefined) | inactive | –
66 | Cc1ccc(OCC(=O)N/N=C/C=C/c2ccco2)cc1C | inactive | –
67 | Cc1cc(NC(=O)CSc2ccc3nnc(-c4ccccn4)n3n2)no1 | inconclusive [inhibitor, partial curve, poor fit] | –
68 | COc1ccc(O[C@H]2C=C[C@@H](c3ccccc3)O[C@@H]2CO/N=C(\C)CCC(=O)OC[C@H]2O[C@H](c3ccccc3)C=C[C@@H]2Oc2ccc(OC)cc2)cc1 | active: 2.62 µM | –
69 | Cc1ccc(C(=O)Nc2ccc3c(c2)C(=O)N(C)C3=O)c(C)c1 | inactive | –
